# Laboratory results published in PubChem BioAssay AID1362 (SRMLSC, 2008).
# Some of the results follow. These are further read-outs of the screen, such as a control signal, another cell line or another target. No call is given for them. Compounds called inactive in the main read-out are mostly missing here.
# Experiment: growth inhibition of WT strain, primary screen, mitochondrial fusion inhibitor project, WT and mutant strains, chemical genetic (AID 1362); further: tested in S. cerevisiae
# Conditions: mitochondrial fusion phenotypic screen, at 10 µM
row,SMILES,inhibition
1,CCCCCCCSc1nsc(N)n1,51.3%
2,CC(NCC(O)COCCC12CC3CC(CC(C3)C1)C2)c1ccccc1 (stereo not given),72.4%
3,O=[N+]([O-])c1ccc(/C=N/Nc2nc(N3CCCCC3)nc(N3CCCCC3)n2)o1,48.9%
4,Cc1cc(C)nc(Nc2ncc(O)n2-c2ccccc2)n1,-35.8%
5,CN(C)CCCN(C(=O)c1ccc2c(c1)CCCC2)c1nc2ccc(Cl)cc2s1,68.1%
6,FC(F)(F)c1ccc(Cl)c(N/N=C/c2ccc(N3CCOCC3)s2)c1,39.7%
7,O=S(=O)(NCCc1csc(-c2ccc(C(F)(F)F)cc2)n1)c1ccc2c(c1)OCCO2,43.4%
8,Cc1cccc(N=N/C(=C\O)C(=O)c2ccc(Br)cc2)c1,96.2%
9,NCCc1c(-c2ccccc2)n(-c2ccccc2)c2ccccc12,37.5%
10,CCC(=O)Nc1ccc(Br)c(Cl)c1,-1.56%
11,CCCCN(CCCC)C1=Nc2ccccc2N/C1=C(/C#N)C(=O)OCC,-6.03%
12,COc1ccccc1-c1cc(C(F)(F)F)nc(N2CCCCC2)n1,42.5%
13,CSC(=S)N/N=C(\C)c1ccc(Br)cc1,39.7%
14,S=C(NCc1ccccc1)NC1CCCc2ccccc21 (stereo not given),65.5%
15,C=C(C)C1Cc2c(C)nn(-c3nc(C)cc(C)n3)c2C1 (stereo not given),51%
16,O=C(NC(=S)N1CCN(Cc2ccc3c(c2)OCO3)CC1)c1cccc(Br)c1,51.3%
17,COc1ccc(CNCCc2ccc(Cl)cc2)cc1OCc1ccccc1,80.9%
18,Cc1ccccc1NC(=S)NC(C)CCc1ccccc1 (stereo not given),58.1%
19,C=CCn1c(SCc2csc(-c3ccc(C)cc3)n2)nnc1-c1ccccc1OC,41.7%
20,O=C(/C=C/c1ccc(Cl)cc1Cl)NCCSc1ccccc1,29.3%
21,Cc1ccc(COn2c(-c3ccc(Cl)cc3Cl)nc3ncccc32)cc1,44.9%
22,CCOc1ccc(NC(=S)Nc2cccc3cnccc23)cc1,54.1%
23,Cc1ccc(-c2nc(N)sc2-c2ccc(C)cc2)cc1,29.5%
24,OCC1(CCOc2ccccc2)CCN(CC2=Cc3cc(Cl)ccc3OC2)CC1,86.3%

row,SMILES,inhibition
1,COc1cccc(NC(=S)N(CCCN2CCCC2)Cc2cccn2Cc2ccc(Cl)cc2)c1,20.1%
2,O=C(Nc1nc(-c2ccccc2)cs1)c1ccc(Br)o1,51.1%
3,CC(C)Cn1c(N)c(C(=O)NCC2CCCO2)c2nc3ccccc3nc21 (stereo not given),51.6%
4,O=C(Nc1cccc(F)c1)c1cc(S(=O)(=O)NCCC2=CCCCC2)ccc1F,10.9%
5,Cc1ccc(-c2cc(C(F)F)n3ncc(C(=O)Nc4c(C)nn(Cc5ccccc5Cl)c4C)c3n2)cc1,12.9%
6,O=C(NC(=S)Nc1ccc(CN2CCCCC2)cc1)c1cccc(OCc2ccccc2)c1,64%
7,Cc1ccc(/C(=N\O)c2oc3c(C)c4oc(=O)cc(C)c4cc3c2C)cc1,-0.86%
8,COc1ccc(OCCNC(=S)Nc2cccc3ccccc23)cc1,55.4%
9,Cc1ccccc1OCCSCc1nc2ccccc2[nH]1,59.4%
10,CC(=O)Nc1ccc(S(=O)(=O)NCC(=O)OCC(=O)N2CCc3ccccc32)cc1,3.77%
11,CSc1ccc(CN2CCC(CO)(Cc3ccc(Cl)cc3)CC2)cc1,54.5%
12,COc1ccc(-c2cc(C(=O)N3CCN(c4ncccn4)CC3)c3ccccc3n2)c(OC)c1,28.1%
13,Cc1cccc(-n2ncc3c(N4CC(C)CC(C)C4)ncnc32)c1 (stereo not given),23.3%
14,COCCN(C(=S)Nc1ccc(C(C)C)cc1)C(C)c1cccs1 (stereo not given),-8.75%
15,N#Cc1ccccc1Sc1ccccc1C(=O)Nc1ccc(Br)cc1,6.45%
16,O=C(COC(=O)Cc1c(Cl)cccc1Cl)Nc1ccccc1-c1ccccc1,-14.2%
17,CC1=C(OC(=O)c2ccccc2)C(C)(C)C(c2ccc(Br)cc2)OC1=O (stereo not given),41.5%
18,Cn1c(Oc2ccc3c(c2)OCO3)nc2c1c(=O)n(Cc1ccccc1)c(=O)n2C,-0.56%
19,Cc1ccc(-c2nnc(-c3ccccc3)c(-c3ccccc3)n2)cc1,48%
20,CC(NC(=O)COc1ccccc1-c1ccccc1)c1ccccc1 (stereo not given),5.14%
21,Cc1cc(C)c(N2CCN(S(=O)(=O)N3CCCCCC3)CC2)c(C)c1,16.9%
22,CCC(CO)[n+]1c(C)cc(/C=C2\Sc3ccccc3N2Cc2ccccc2)cc1C (stereo not given),42.5%
23,C/C(CCc1ccc2c(c1)OCO2)=N\N=C(/N)SC1CC(=O)N(c2ccc(Cl)cc2)C1=O (stereo not given),45%
24,Cc1nn(C(=O)C2CC2)c(C)c1Sc1ccc(Cl)cc1,31.1%

row,SMILES,inhibition
1,CCN(CC)c1ccc2c(Cl)c(Br)c(=O)oc2c1,67.2%
2,N#CCC(=O)N/N=C/c1cc(-c2ccccc2)n(-c2ccc(Cl)cc2)c1-c1ccccc1,-27.9%
3,Cc1ccc(N(C(=O)c2ccccc2Cl)C2=NC(C)CS2)c(C)c1 (stereo not given),10.4%
4,Oc1ccc(/C=N/N2CCN(C3c4ccccc4-c4ccccc43)CC2)c(O)c1,95.4%
5,COC(=O)c1ccc(-c2ccco2)n1Cc1cccc(C)c1,22.1%
6,Oc1ccc(N=Nc2c(O)ccc3ccccc23)cc1,54.1%
7,O=C(/C=C/c1cccc(Br)c1)N1CCN(c2cccc(C(F)(F)F)c2)CC1,54.5%
8,CC[C@@H](C)[C@H](NC(=O)OC(C)(C)C)c1nnc(S(=O)(=O)Cc2cc(C)ccc2C)o1,19.4%
9,CCCOc1ccc(CSCCNC(=S)Nc2ccccc2)cc1,30.2%
10,CC1Cc2ccccc2N1c1ncnc2c1nnn2Cc1ccccc1 (stereo not given),42.6%
11,CCOC(=O)C1CCN(c2nc3ccccc3nc2C(C#N)C(=O)NCCc2ccccc2)CC1 (stereo not given),5.65%
12,CCCCCCCSc1nnc(-c2ccccc2N)c(=O)[nH]1,60.1%
13,CSc1nc2ccc(NS(=O)(=O)c3c(Cl)cccc3Cl)cc2s1,10.1%
14,CN(C)S(=O)(=O)N1CCN(CC(O)COc2ccc3cc(Br)ccc3c2)CC1 (stereo not given),97.6%
15,c1ccc2c(c1)CC/C2=N/Nc1nc2ccccc2[nH]1,55.8%
16,CC(c1ccccc1)N(CC(=O)NC1CCCCC1)S(=O)(=O)c1cccc(C(F)(F)F)c1 (stereo not given),-4.35%
17,N=c1c2c(ncn1Cc1ccco1)Oc1c(ccc3ccccc13)C2c1ccccc1 (stereo not given),40.3%
18,CC(C)OC(=O)c1cccnc1N1CCN(c2cccc(Cl)c2)CC1,68.5%
19,CN(Cc1ccc(OC(F)F)cc1)Cc1nc2c(Br)cc(Br)cc2c(=O)[nH]1,42.1%
20,CCCCNc1c2c3c(cccc3n(C)c1=O)C(=O)c1ccccc1-2,17.6%
21,N#Cc1ccc(NC(=O)Nc2ccc(Cl)cc2)cc1,26.9%
22,COC(=O)c1c(NC(NC(=O)C(C)(C)C)C(Cl)(Cl)Cl)sc2c1CCC2 (stereo not given),35.7%
